In the supplement of paper PMC5919970:
Where a name gives a salt, the structure may show the parent alone. The full ranking holds about 2,000 compounds; the median of “fractional viability relative to vehicle” is about 0.91, and the lowest 2% start at about 0.045. This is one part of the list.

System: TYKNU
Experiment: fractional viability relative to vehicle; TYKNU is a high-grade serous ovarian cancer line; higher = less growth inhibition
Conditions: 72 h
Procedure, shortened: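 TYKNU control cells or lentiCRISPRv2 knockout derivatives were seeded at 500 cells per well into drug-stamped 384-well plates holding a ~2100-compound library at 2 or 10 μM, in duplicate. Cells were grown at 37 °C in 5% CO2 in RPMI 1640 with 10% FBS, and drug treatment lasted 72 h. Viability was read by Cell Titer Glo luminescence. Duplicate treatment wells were averaged and normalised to duplicate control wells from the same plate position.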

[1] = 2uM, genotype: DNM1L knockout (sgDNM1L #1)
[2] = 2uM, genotype: sgCTRLA1 (non-targeting control)
[3] = 10uM, genotype: DNM1L knockout (sgDNM1L #1)
[4] = 10uM, genotype: sgCTRLA1 (non-targeting control)

SMILES | fractional viability [1] | fractional viability [2] | fractional viability [3] | fractional viability [4]
O=C(O)c1cc(I)ccc1NC(=O)[C@H](Cc1ccccc1)NCc1ccccc1 | 0.795 | 0.952 | 0.918 | 0.807
CCN1CCN(Cc2ccc(Nc3ncc(F)c(-c4cc(F)c5nc(C)n(C(C)C)c5c4)n3)nc2)CC1 | 0.289 | 0.473 | 0.0303 | 0.0236
COCCc1ccc(OCC(O)CNC(C)C)cc1 (configuration not stated) [Metoprolol Tartrate] | 1.03 | 1.1 | 0.925 | 0.923
COc1ccc(CN2CCN(C(c3ccc(F)cc3)c3ccc(F)cc3)CC2)c(OC)c1OC [Lomerizine HCl] | 1.02 | 1.12 | 0.696 | 1.13
CC(C)Cc1ccc(C(C)C(=O)O)cc1 (configuration not stated) [Ibuprofen] | 1.03 | 1.1 | 0.925 | 1.03
Nc1ncnc2c1C(=O)N(c1ccc([C@H]3CC[C@H](CC(=O)O)CC3)cc1)CCO2 | 0.929 | 0.967 | 0.819 | 0.967
CN1CCC(NC(=O)c2cc(-c3c(O)cc(O)cc3Oc3ccc([N+](=O)[O-])cc3)on2)CC1 | 0.249 | 0.201 | 0.275 | 0.186
Cc1cc(-c2ncc(CC(=O)Nc3ccc(-c4cnccn4)cn3)cc2C)ccn1 | 0.863 | 1.1 | 0.665 | 0.746
Cc1cnc(C(=O)NCCc2ccc(S(=O)(=O)NC(=O)NC3CCCCC3)cc2)cn1 [Glipizide] | 0.818 | 1.13 | 0.918 | 0.979
O=C1[C@H](CC[C@H](O)c2ccc(F)cc2)[C@@H](c2ccc(O)cc2)N1c1ccc(F)cc1 [Ezetimibe] | 0.908 | 1.06 | 0.592 | 0.868
c1cc(-c2cnn3cc(-c4ccc(OCCN5CCCCC5)cc4)cnc23)ccn1 [Dorsomorphin (Compound C)] | 0.845 | 0.916 | 0.552 | 0.503
COc1ncc(-c2ccc3nccc(-c4ccnnc4)c3c2)cc1NS(=O)(=O)c1ccc(F)cc1F | 0.446 | 0.184 | 0.0665 | 0.0352
COc1cc2ncnc(Oc3ccc(CC(=O)Nc4cnn(C(C)C)c4)cc3)c2cc1OC | 0.932 | 1.12 | 0.916 | 1.08
CN1CCC(=C2c3ccccc3CCc3sccc32)CC1 [Pizotifen Malate] | 0.954 | 1.11 | 0.806 | 0.908
CCN(CC)CCOc1ccc(C(=C(Cl)c2ccccc2)c2ccccc2)cc1 [Clomifene citrate] | 0.751 | 1.08 | 0.178 | 0.479
CCCCCOC(=O)Nc1nc(=O)n([C@@H]2O[C@H](C)[C@@H](O)[C@H]2O)cc1F [Capecitabine] | 1.08 | 1.1 | 0.815 | 1.02
CCCCNc1ccc(C(=O)OCCN(C)C)cc1 [Tetracaine HCl] | 1.03 | 1.12 | 1.03 | 0.983
O=C1CCc2ccc(OCCCCN3CCN(c4cccc(Cl)c4Cl)CC3)cc2N1 [Aripiprazole] | 0.859 | 1.03 | 0.416 | 0.572
COc1c2ccoc2cc2oc(=O)ccc12 [Bergapten] | 0.872 | 1.13 | 0.835 | 1.12

SMILES | fractional viability [1] | fractional viability [2] | fractional viability [3] | fractional viability [4]
CCCCCCCCCCCC1=C(O)C(=O)C=C(O)C1=O [Embelin] | 0.857 | 1.01 | 0.651 | 0.992
CNCc1cc(-c2ccccc2F)n(S(=O)(=O)c2cccnc2)c1 | 0.688 | 0.996 | 0.621 | 0.76
Cc1ccccc1C(OCCN(C)C)c1ccccc1 (configuration not stated) [Orphenadrine Citrate] | 1.01 | 1.08 | 0.829 | 0.887
O=C1C(O)=C([C@H]2CC[C@H](c3ccc(Cl)cc3)CC2)C(=O)c2ccccc21 [Atovaquone] | 1.15 | 1.05 | 0.875 | 0.971
Cc1nn(C)c2c1C(c1ccc(C(F)(F)F)cc1)C(C#N)=C(N)O2 (configuration not stated) | 0.924 | 1.08 | 0.886 | 0.86
OC[C@H]1O[C@@H](c2ccc(Cl)c(Cc3ccc(O[C@H]4CCOC4)cc3)c2)[C@H](O)[C@@H](O)[C@@H]1O | 0.8 | 1.06 | 0.788 | 0.819
CN(C)c1cccc(-c2c3c(=O)n(-c4ccccc4Cl)[nH]c3cc(=O)n2C)c1 | 0.822 | 1.05 | 0.865 | 1.07
COC(=O)C1=C(C)NC(C)=C(C(=O)OCCN(C)Cc2ccccc2)C1c1cccc([N+](=O)[O-])c1 (configuration not stated) [Nicardipine HCl] | 0.805 | 1.02 | 0.564 | 0.825
Cc1nc(C#Cc2ccnc(Cl)c2)c(C)n1-c1ccc(OC(F)(F)F)cc1 | 1.11 | 1.04 | 0.727 | 0.974
COCCOc1ccc2c(c1)ncn2-c1ccc2cccc(N3CCC(N)CC3)c2n1 | 0.892 | 0.893 | 0.13 | 0.139
Cc1cc(Nc2cc(N3CCN(C)CC3)nc(/C=C/c3ccccc3)n2)n[nH]1 | 0.443 | 0.472 | 0.292 | 0.287
COc1ccc(C2CC(c3ccccc3)=NN2c2ccc(S(N)(=O)=O)cc2)cc1 (configuration not stated) | 0.821 | 0.9 | 0.649 | 0.695
Cc1cc(-c2ccc(CC(=O)Nc3ccc(-c4cccnc4)cc3)cc2)ccn1 | 0.912 | 1.07 | 0.816 | 0.942
COC(=O)C1=C(C)NC(C)=C(C(=O)OCC(C)C)C1c1ccccc1[N+](=O)[O-] (configuration not stated) [Nisoldipine] | 0.984 | 1.04 | 0.724 | 0.852
Oc1cc(O)c(Cl)cn1 [Gimeracil] | 0.993 | 1.01 | 0.966 | 1.14
COc1ccc2cc(OCC3(C(=O)O)CN(C(=O)c4ccc(F)cc4)C3)ccc2c1 | 0.822 | 1.12 | 0.788 | 1.11
CC1(C)CNc2cc(NC(=O)c3cccnc3NCc3ccncc3)ccc21 [Motesanib Diphosphate (AMG-706)] | 1.1 | 0.974 | 0.969 | 0.903
CC[C@@H]1/C=C(\C)C[C@H](C)C[C@H](OC)[C@H]2O[C@@](O)(C(=O)C(=O)N3CCCC[C@H]3C(=O)O[C@H](/C(C)=C/[C@@H]3CC[C@@H](O)[C@H](OC)C3)[C@H](C)[C@@H](O)CC1=O)[C@H](C)C[C@@H]2OC [Ascomycin (FK520)] | 0.544 | 0.827 | 0.629 | 0.607
Cc1ccc(-c2c(-c3nn(C)c4ncnc(N5CC[C@H](N6CCCCC6)C5)c34)cnn2C)cc1 | 1.02 | 1.11 | 0.738 | 1.18
